# In the RNAGym collection of RNA variant scans (doi:10.1101/gad.245936.114):
# Variants at the floor of the assay are shown more often than the library holds them.
# B1: tRNA (parent)
# chain: CUCUCGGUAGCCAAGUUGGUUUAAGGCGCAAGACUUUAAUUUAUCACUACGAAAUCUUGAGAUCGGGCGUUCGACUCGCCCCCGGGAGAUUUUUUCCUCGAGCAA
# Variants of: B1
# Assay: nonsense suppression (GFP-seq) (ratio to wild type); higher = more function; SUP4oc tRNA, yeast GFP reporter sort-seq
# Summary of the method: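 Raffinose/galactose medium with 80 mg/L adenine was used to grow yeast carrying genome-integrated tRNA variants (~3% random-mutation library), RFP, and a galactose-driven GFP ochre reporter. Cells went into GFP/RFP bins, which were Illumina-sequenced, and variants with ≥100 reads and ≥30 cells were scored. Nonsense suppression (GFPSEQ) is the per-bin median GFP/RFP weighted by estimated cell share and expressed relative to the unmutated parent tRNA.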
row,Variant,nonsense suppression
1,C12G U58C A87U,≤ 0.026
2,C12A G61A,≤ 0.026
3,C12U G67A G78A,≤ 0.026
4,C12A A33G G67U,≤ 0.026
5,C11U G18A C34U,≤ 0.026
6,C12G A13U U16A,≤ 0.026
7,C11U C29U C77A,≤ 0.026
8,C12G U16A G18U C80G C82U,≤ 0.026
9,C12A C56G A62C C81A,≤ 0.026
10,C12A A23G G28A,≤ 0.026
11,C11U U57C G65C,≤ 0.026
12,C12A A23C C64U U71C,≤ 0.026
13,C12A A74U C79A G86C,≤ 0.026
14,C11U U58G U63A A74G,≤ 0.026
15,C12A A23U C72A G88U,≤ 0.026
16,C12G A87C,≤ 0.026
17,C12U G19A G88C,≤ 0.026
18,C12U U22C C27A G28C,≤ 0.026
19,C12U A24U U71G,≤ 0.026
20,C12G U17C U21G,≤ 0.026
21,C11U U71A C75A,≤ 0.026
22,C12U C81G,≤ 0.026
23,C12U C81A,0.0405
24,C12A G67A C72U,≤ 0.026

row,Variant,nonsense suppression
1,C12U G25A A74G,≤ 0.026
2,C12A G28C G61A A62C,≤ 0.026
3,C12U C82U,0.32
4,C12U A24G U76G,≤ 0.026
5,C12U U57A C79A,≤ 0.026
6,C12G A54G,≤ 0.026
7,C12A U21A A89G,≤ 0.026
8,C12U G32A C75U A89C,≤ 0.026
9,C12U A13G G25U,≤ 0.026
10,C12G A23C U63C,≤ 0.026
11,C12U U21G U70G,≤ 0.026
12,C12G U16C,≤ 0.026
13,C12G A60C G66C,≤ 0.026
14,C11U C34A,≤ 0.026
15,C12U C80A,≤ 0.026
16,C12U G19U,≤ 0.026
17,C12U A31U C82A,≤ 0.026
18,C12U U55G U70G C83U,≤ 0.026
19,C12U U16A U58C,≤ 0.026
20,C11U G15U A24G A60U,≤ 0.026
21,C12A U21A G25A,≤ 0.026
22,C11U U20A A30U A33C,≤ 0.026
23,C11U G25C C34U,≤ 0.026
24,C12U A14U A54U C68G,≤ 0.026

row,Variant,nonsense suppression
1,C11U G86U,≤ 0.026
2,C11U U16C C68G,≤ 0.026
3,C12U A13G U22C C27U A30C G78C,≤ 0.026
4,C12A G25C C68G,≤ 0.026
5,C12U A60U C80A G86C,≤ 0.026
6,C11U G61U G78A,≤ 0.026
7,C12U A60U,0.723
8,C11U C77U,≤ 0.026
9,C12A U63C U70C,≤ 0.026
10,C12A U70C,≤ 0.026
11,C12A A89G,≤ 0.026
12,C12U C56G,≤ 0.026
13,C12U C56U,≤ 0.026
14,C11U G61A A62C U70C A74G,≤ 0.026
15,C12U U20G A24G,≤ 0.026
16,C12U A23G G59A G61U,≤ 0.026
17,C12U G18C G19A A74C U76A G86C,≤ 0.026
18,C11U C56A U70A,≤ 0.026
19,C12U G15A U35A,≤ 0.026
20,C11U U55G G67C,≤ 0.026
21,C12U U58G G61C A89C,≤ 0.026
22,C11U C29U C64A,≤ 0.026
23,C12G C56U,≤ 0.026
24,C11U U55A C82G C83A,≤ 0.026

row,Variant,nonsense suppression
1,C12U A24U,0.118
2,C12U G59A U76G,≤ 0.026
3,C12U U16C A23U C77G C81U,≤ 0.026
4,C12G A14U U16A,≤ 0.026
5,C12U U58A A74C G78C,≤ 0.026
6,C12U U16A C34A,≤ 0.026
7,C12G A33G G61U,≤ 0.026
8,C12G A24C,≤ 0.026
9,C12A C27A C77G,≤ 0.026
10,C12G C83G,≤ 0.026
11,C12A A30C C34U,≤ 0.026
12,C11U G73U C80U,≤ 0.026
13,C11U G15C A30G,≤ 0.026
14,C12U U35A A60C A62C C82U,≤ 0.026
15,C11U G26A G66C C75A C79G C80G,≤ 0.026
16,C12A U35A A54G U63A G66A,≤ 0.026
17,C11U U22C,0.0289
18,C12G G18A,≤ 0.026
19,C12U A33C U63G,≤ 0.026
20,C12G G18C G67A C77U,≤ 0.026
21,C12U G65C C81A,≤ 0.026
22,C12G G15C U21G A23U C27U U58A,≤ 0.026
23,C12U U58A G61C U70G C81U,≤ 0.026
24,C12U C27U G61C,≤ 0.026

row,Variant,nonsense suppression
1,C12U U22G U57C G67U,≤ 0.026
2,C12G U16A A31C U55G G73C,≤ 0.026
3,C11U C29U U57A,≤ 0.026
4,C11U G26C U57G,≤ 0.026
5,C12U C79U,0.205
6,C12A U71G,≤ 0.026
7,C12G G19A U20G C56A,≤ 0.026
8,C12A A13U G18U,≤ 0.026
9,C12U G32A U55A,≤ 0.026
10,C11U G25C,≤ 0.026
11,C11U U21G G59U,≤ 0.026
12,C12A G19C G86U,≤ 0.026
13,C12A G25A,≤ 0.026
14,C12U G32C C77G G78U,≤ 0.026
15,C12U G78A,0.0268
16,C12U G78U,0.0326
17,C12A A23C,≤ 0.026
18,C11U U21C G65C,≤ 0.026
19,C11U G19U,≤ 0.026
20,C12A A13C G18C A24U,≤ 0.026
21,C11U C12G A89U,≤ 0.026
22,C12A C77G G86C,≤ 0.026
23,C12A A87U,≤ 0.026
24,C12G A54G U57G A60U C77U,≤ 0.026

row,Variant,nonsense suppression
1,C11U G18C G26U U57G A60U U76A C79G C80U,≤ 0.026
2,C12G G15A C81G,≤ 0.026
3,C11U A87C,≤ 0.026
4,C12A A14U A24G G61U A87C,≤ 0.026
5,C12U G25C U57G C83G,≤ 0.026
6,C12U U63G,0.121
7,C12A A33C,≤ 0.026
8,C12A A33G,≤ 0.026
9,C12U A31G G65A,≤ 0.026
10,C12G A89U,≤ 0.026
11,C12A U17G U22G G67C,≤ 0.026
12,C12G U70A,≤ 0.026
13,C12G G67C C75U,≤ 0.026
14,C12G U58G U70G,≤ 0.026
15,C11U G61C G65C U76C C83A,≤ 0.026
16,C12G G28C G32U C72G C83G,≤ 0.026
17,C12U G84U,0.117
18,C12U G84A,≤ 0.026
19,C12A U35G C81U,≤ 0.026
20,C12A A62G C82G,≤ 0.026
21,C11U C64U,≤ 0.026
22,C12G U63A G88A,≤ 0.026
23,C11U U58G,≤ 0.026
24,C12A G69C A74U,≤ 0.026

row,Variant,nonsense suppression
1,C11U A62G U63A,≤ 0.026
2,C12A U20G C68G G69A A89U,≤ 0.026
3,C11U G26C C27A,≤ 0.026
4,C11U G73A G88U,≤ 0.026
5,C12G G26A,≤ 0.026
6,C12G G26C,≤ 0.026
7,C12U U55A,≤ 0.026
8,C12G G85C,≤ 0.026
9,C12A G66C,≤ 0.026
10,C12A G19C G67U U70C G84C,≤ 0.026
11,C11U C29U A54C G88U,≤ 0.026
12,C12U,0.773
13,C12G,≤ 0.026
14,C12A,≤ 0.026
15,C11U G19C A87C,≤ 0.026
16,C12G A13G A23U,≤ 0.026
17,C11U C34U G88U,≤ 0.026
18,C12G U17C A89C,≤ 0.026
19,C12U A14C C34U,≤ 0.026
20,C11U U57G C83A,≤ 0.026
21,C11U C29U G78A,≤ 0.026
22,C12G C64A,≤ 0.026
23,C11U G18U G61C,≤ 0.026
